According to PubChem BioAssay AID1963576 (National Center for Advancing Translational Sciences (NCATS), 2024):
Hit rate of the full screen: of about 46,000 compounds, about 60 (0.1%) were called active. Roughly 3% stayed inconclusive and do not appear here. Calls follow the shape of the dose curve; as a rule, active = well fitted inhibition curve with a large enough effect; inconclusive = small, poorly fitted or top-dose-only effect; inactive = no such curve, though single readings can be large or run the other way. Some of the results follow.

Experiment: Primary qHTS assay for Inhibitors of ovarian cancer metastasis using an organotypic tumor microenvironment (TME) model. Also: nearly all actives have a fitted effect of over 65% in size.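 As to activity change, negative = inhibition: plate controls were DMSO wells for no effect and tomatine positive control wells for full effect.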
Conditions: SKOV3ip1-GFP adhesion/invasion on 3D omental model, fluorescence; series mostly up to 45.8 µM; activity change, negative = inhibition: at the top concentration
Outline: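 A 3D layer of primary human omental fibroblasts, mesothelial cells, fibronectin and collagen I, grown 48 hr, received SKOV3ip1-GFP cells in serum-free medium plus compounds at 0.36-46 umol/L. After 2 hr RT and 16 hr 37 C, fixed adherent GFP cells were counted; normalized to DMSO and tomatine.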

outcome, inactive:
CCOc1cccc2sc(NC(=O)c3ccc(S(=O)(=O)N4CCCCC4C)cc3)nc12 (centres undefined)
CCN(c1cccc(C)c1)S(=O)(=O)c1cc2c(cc1C)n(C)c(=O)c(=O)n2C
COc1ccc(-n2c(=O)c3c(c4cc(OC)ccc4n3C)n(Cc3cccc(OC)c3)c2=O)cc1
COc1cc(NC(=O)Cn2c(=O)n(Cc3ccco3)c(=O)c3sc4ccccc4c32)cc(OC)c1
Cc1cccc(CCNC(=O)c2ccc3c(c2)N(Cc2ccccc2F)C(=O)c2ccccc2S3)c1
O=C(CSc1nnc(-c2cccs2)o1)Oc1ccccc1
O=C(CSc1nnc(-c2ccccc2)o1)c1cccc([N+](=O)[O-])c1
CCOC(=O)c1c(C)[nH]c(CCC(=O)NCc2ccc(CC)cc2)c1C
CCN(CC)CCCNC(=O)c1ccc2c(=O)n(CCc3ccccc3)c(=O)[nH]c2c1
O=C(NCc1ccccc1Cl)c1ccc(CSCc2ccccc2Cl)o1
CCC(Sc1nc2cc(OC)c(OC)cc2c2nc(-c3ccccc3)nn12)C(=O)Nc1cccc(C)c1 (centres undefined)
CCC(C)NC(=O)c1ccccc1NC(=O)CN1C(=O)c2cccc3cccc1c23 (centres undefined)
CC(C)Nc1ccc(-c2nc(-c3ccco3)no2)cc1[N+](=O)[O-]
Cc1cccc(NC(=O)c2nnn(CC(=O)Nc3ccc(C(C)C)cc3)c2N)c1C
CC(C)NC(=O)CN1C(=O)COc2ccc(S(=O)(=O)N3CCCCCC3)cc21
CCOC(=O)c1c(C)[nH]c(CCC(=O)Nc2ccc(C)c(F)c2)c1C
Cc1ccc(NC(=O)CCc2nnc3n(C)c(=O)c4sccc4n23)cc1C

Activity change, negative = inhibition, inactive:
Cc1cccc(N(C)C(=O)CCS(=O)(=O)c2ccc3c(c2)n(C)c(=O)c(=O)n3C)c1 20.2%
CCOC(=O)c1c(-c2ccc(C)cc2)csc1NC(=O)c1cc(-c2ccc(OC)cc2)on1 -1.07%
CCc1cccc(NC(=O)c2ccc3c(c2)N(Cc2cccc(Cl)c2)C(=O)c2ccccc2S3=O)c1 (centres undefined) 15.6%
COc1ccc(CCNC(=O)c2ccc3c(c2)N=C(C)c2ccccc2S3)cc1OC 9.49%
COc1ccc(-c2nc3ccccc3o2)cc1NC(=O)c1cccnc1 7.71%
CCCn1c2ccccc2c2cnn(CC(=O)NCCN(CC)CC)c(=O)c21 9.19%
Cc1cccc(NC(=O)CN(C)S(=O)(=O)c2ccc3c(c2)c(=O)n(C)c(=O)n3C)c1C 98.8%
Cc1cc(Nc2cccc(C(=O)O)c2)n2nc(C)nc2n1 9.74%
COc1ccc(CCNS(=O)(=O)c2c(C)nc3sc(C)cn3c2=O)cc1OC 3.78%
CCCCOc1ccc(C(=O)Nc2cc(-c3cn4cccnc4n3)ccc2OC)cc1 12%
CCOc1c(Cl)cc(CNc2ccc3[nH]c(=O)[nH]c3c2)cc1OC -19.8%
COc1ccc(NC(=O)NC(C)c2c(-n3cccc3)sc(C)c2C)cc1OC (centres undefined) -9.45%
O=C(CSCc1cccc(F)c1)NCc1ccccc1 -1.27%
CCCC1=Nc2cc(C(=O)NCc3ccc(OC)cc3)ccc2Sc2ccc(C)cc21 -13.3%
Fc1cccc(-n2ncc3c2ncn2nc(COc4ccc(Cl)cc4)nc32)c1 -0.244%
O=C(CCC1N=C2c3ccccc3N=C(SCc3ccc(F)cc3)N2C1=O)NCc1ccc(F)cc1 (centres undefined) -26.4%
COc1ccc(-c2cc3nc(C)c(CCC(=O)Nc4ccccc4C(C)=O)c(C)n3n2)c(OC)c1 5.53%
CCc1cccc(C)c1NC(=O)Cn1ccn(-c2cccc(OC)c2)c(=O)c1=O 5.84%
Cc1cccc(Cn2c(SCc3ccc(C(=O)NCCc4ccccc4)cc3)nc3ccncc32)c1 -10.4%
O=C(CCc1nc(CN2CCN(S(=O)(=O)c3ccc(Cl)cc3)CC2)no1)N1CCCCC1 1.99%
Cc1ccc(S(=O)(=O)Nc2cc3c(cc2NCc2ccccc2)n(C)c(=O)n3C)c(C)c1 -3.64%
CN1CCc2c(sc3c2C(=O)NC(c2ccc(OC(=O)c4ccc(C(C)(C)C)cc4)cc2)N3)C1 (centres undefined) -17.5%
CCOc1ccc(C(=O)NCCn2cc(SCC(=O)Nc3ccc4c(c3)OCCO4)c3ccccc32)cc1 -7.66%
CCOc1ccc(-c2nc(CSCC(=O)N3CCN(c4ccc(F)cc4)CC3)c(C)o2)cc1 1.33%
Cc1nc2scc(C)n2c(=O)c1S(=O)(=O)Nc1ccc(N2CCOCC2)c(Cl)c1 -13.7%
CCC(C(=O)Nc1cc(OC)cc(OC)c1)n1nc(-c2ccc(C)c(C)c2)ccc1=O (centres undefined) 15.5%
CCN(CC)C(=O)c1sc2c(c1C)c(=O)n(-c1ccc(Cl)c(Cl)c1)c(=O)n2Cc1ccccc1C#N 1.34%
COCCCNc1oc(/C=C/c2cc(OC)c(OC)c(OC)c2)nc1C#N 32.3%
CN(C)c1ccc(-c2nc(-c3cc4cc(Cl)ccc4oc3=O)cs2)cc1 1.84%
CCc1cccc(NC(=O)CCC(=O)N2CCSc3ccccc32)c1 1.14%
Cc1ccc(Oc2c(C(F)(F)F)oc3c(CN4CCC(C)CC4)c(O)ccc3c2=O)cc1 7.49%
Cc1cc(-c2ccc(C)c(S(=O)(=O)N3CCN(c4cccc(C(F)(F)F)c4)CC3)c2)on1 -12.3%
Cc1cccc(NC(=O)CSc2ncc3c(n2)-c2ccccc2N(Cc2ccc(F)cc2)S3(=O)=O)c1C -2.3%
CCC(C)NC(=O)c1cc(-c2cccc(OC)c2)on1 (centres undefined) -8%
Cc1ccc(N2CCN(C(=O)c3c(C)oc4ncn(CC(C)C)c(=O)c34)CC2)c(C)c1 -0.75%
CCc1ccc(C(=O)c2cn(CC(=O)Nc3cc(C)ccc3C)c3nc(C)ccc3c2=O)cc1 0.616%
CCN(CC)C(=O)c1c(-c2ccccc2)c(-c2ccccc2)nn(C)c1=O 4.23%
CC(=O)N1CCCc2cc(S(=O)(=O)N3CCC(C(=O)Nc4cccc(Cl)c4C)CC3)ccc21 0.919%
Cc1cc2ccccc2n1-c1ccc(C(=O)N2CCC(C(=O)NCc3ccc(Cl)cc3)CC2)s1 -14.4%
COc1ccc(N2CCN(C(=O)CCn3nc(C)c(S(=O)(=O)N4CCCC4)c3C)CC2)cc1 -1.64%
CCOC(CN1C(=O)[C@](CC(=O)Nc2ccc(C)cc2)(NC(=O)Nc2ccc(C)cc2)c2ccccc21)OCC -1.2%
COC(=O)c1cc(S(=O)(=O)N2CCN(c3cccc(C)c3)C(C)C2)cn1C (centres undefined) 4.1%
NC(=O)c1ccccc1NC(=O)c1ccc(-c2ccc(Br)cc2)o1 10%
O=C(Cn1ncc2c3ccccc3n(Cc3ccc(Cl)cc3)c2c1=O)NCc1ccccn1 -0.164%
CC(=O)c1cccc(NC(=O)Cn2nc(C)n3cccc3c2=O)c1 3.08%
CCc1ccc(-n2cnc3cc(C(=O)NCc4ccc(C)cc4)ccc32)cc1 3.1%
CCOc1ccc(C(=O)Nc2ccc3nc(SCCOc4ccccc4)sc3c2)cc1 3.69%
Cc1ccc(CSc2nnc(CCNC(=O)OC(C)(C)C)o2)cc1 -0.728%
COc1ccc(OC)c(NC(=O)CSc2nnc3ccc4ccccc4n23)c1 -2.45%
Cc1ccc(-n2ncc(C(=O)NCc3cccs3)c2C2CCN(C(=O)OC(C)(C)C)CC2)c(C)c1 6.31%
COc1ccc(NC(=O)C2=C(C)Nc3nc(SCc4ccccc4C)nn3C2c2cc(OC)c(O)c(OC)c2)cc1 (centres undefined) -8.18%
CN(Cc1ccccc1)C(=O)Nc1ccc2c(c1)N(C)C(=O)c1ccccc1S2 5.77%
CCC(C(=O)NCc1ccccc1)n1nc(C)c2sc3ccccc3c2c1=O (centres undefined) 22.7%
COc1ccc(NC(=O)CCn2c(=O)c3cccn3c3cccnc32)c(OC)c1 -15.9%
Cc1ccc(-c2nnc(Nc3cccc(O)c3)c3ccccc23)cc1S(=O)(=O)N1CCOCC1 -3.47%
COc1ccc(-c2noc(CC(=O)Nc3ccc(F)cc3F)n2)cc1 11.7%
CCc1ccc(NC(=O)CCn2nc(-c3ccccc3OC)c3c(C)cc(C)nc32)cc1 -24.3%
COc1ccccc1OC(C)C(=O)Nc1ccc(-c2nc3ccccc3s2)cc1 (centres undefined) -8.68%
CCOCCCNC(=O)C(c1ccc(C)cc1)N(Cc1ccc2c(c1)OCO2)C(=O)c1ccc(NC(C)=O)cc1 (centres undefined) 2.35%
Cc1ccc2nc(N3CCC(C(=O)N4CCN(c5cccc(Cl)c5)CC4)CC3)[nH]c2c1 3.8%
Cc1ccc(C2c3[nH]c4ccccc4c3CCN2C(=O)c2cccc(C)c2)cc1 (centres undefined) 1.86%
c1ccc(Nc2c(-c3c[nH]c4ccccc34)nc3ccccn23)cc1 0.792%
COc1ccc(-c2cc(C(=O)OC(C)C(=O)c3ccccc3)c3cccc(Cl)c3n2)cc1 (centres undefined) 3.91%
Cc1cccc(OCC(=O)Nc2ccc(Cl)c(-c3nc4ncccc4o3)c2)c1C 7.2%
COc1cc(C(=O)NCC(c2cccs2)S(=O)(=O)c2ccc(F)cc2)cc(OC)c1OC (centres undefined) -1.47%
COc1cc2cc(CNc3ccc(C)cc3)c(=O)n(CC(=O)Nc3ccc(F)cc3F)c2cc1OC -23.2%
CCOc1ccccc1NC(=O)CN(C)S(=O)(=O)c1ccc2nc(C)sc2c1 -6.2%
Cc1nc(Oc2ccc(F)cc2Cl)c2oc3ccccc3c2n1 2.21%
CCC(=O)N1CCc2cc(Br)cc(S(=O)(=O)CCC(=O)NCc3ccc(Cl)cc3)c21 3.72%
COc1ccc(Br)cc1CNC(=O)c1cc2n(n1)CCCN(Cc1ccc(C)cc1)C2=O 5.59%
O=C(Nc1sc2c(c1C(=O)NCc1ccco1)CCCC2)c1cc(=O)c2ccccc2o1 0.732%
Cc1ccc(C)c(NC(=O)CN2C(=O)C(C)(C)c3ccccc32)c1 4.1%
CC(C)Oc1ccc(C(=O)N(Cc2ccco2)c2ccccn2)cc1 -1.27%
Cc1ccc(CNC(=O)CC(C)S(=O)(=O)c2cc3c(cc2C)NC(=O)CO3)cc1 (centres undefined) 3.23%
CSC1=NC2(CCN(C(=O)NC3CCCCC3)CC2)N=C1c1ccc(C)c(C)c1 -0.89%
Fc1ccc(Nc2c3c(nc4ccccc24)CCC3)cc1 -7.2%
Cc1ccc(Sc2c(C)nn(C(C)(C)C)c2OC(=O)C(C)(C)C)cc1 -3.03%
